This is one part of the list. Rule as the data show it: active = 3.2 or more and inactive = the rest. The signal is at background level for most entries.
What was measured:
Experiment in all cases: enrichment score (SH2-bound / input frequency) (ratio); bacterial display of known human phosphotyrosine sites (pTyr-Var adds point mutants) read by sequencing; higher = stronger binding; tyrosines were phosphorylated by kinases first
Settings in all cases: peptide library: pTyr-Var
SHP2 C-SH2 domain E139D = target: SHP2 C-SH2 domain E139D
[1] = target: SHP2 C-SH2 domain wild-type
SHP2 N-SH2 domain L43F = target: SHP2 N-SH2 domain L43F
SHP2 N-SH2 domain T42A = target: SHP2 N-SH2 domain T42A
SHP2 N-SH2 domain T52S = target: SHP2 N-SH2 domain T52S
[2] = target: SHP2 N-SH2 domain wild-type
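Also: displayed peptides selected on beads carrying the immobilized SH2 domain, with library peptides lacking any tyrosine serving as negative controls.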

Binder | enrichment score (SHP2 C-SH2 domain E139D) | enrichment score [1] | enrichment score (SHP2 N-SH2 domain L43F) | enrichment score (SHP2 N-SH2 domain T42A) | enrichment score (SHP2 N-SH2 domain T52S) | enrichment score [2]
PQAVTYATVKH [LILRB4_Y360_K362T] | active: 5.97 | active: 11.4 | inactive: 2.5 | active: 7.19 | inactive: 2.91 | inactive: 1.3
GGGMIYPLDLF [LINC01600_Y3] | inactive: 1.37 | inactive: 1.24 | inactive: 0.977 | inactive: 1.21 | inactive: 1.06 | inactive: 1.02
GGGMFYPLDLF [LINC01600_Y3_I2F] | inactive: 1.37 | inactive: 1.34 | inactive: 1.27 | inactive: 1.24 | inactive: 1.24 | inactive: 1.28
FQKNIYSEELR [LMNA_Y211] | inactive: 0.996 | inactive: 0.644 | inactive: 1.25 | inactive: 0.944 | inactive: 0.946 | inactive: 1.7
DQVEQYNKELE [LMNA_Y259_K260N] | inactive: 1.39 | inactive: 1.19 | inactive: 1.14 | inactive: 0.721 | inactive: 0.768 | inactive: 0.986
DQGEQYKKELE [LMNA_Y259_V256G] | inactive: 0.511 | inactive: 0.641 | inactive: 0.547 | inactive: 0.395 | inactive: 0.526 | inactive: 0.665
QQLDEYQELLD [LMNA_Y359] | inactive: 0.607 | inactive: 0.605 | inactive: 0.493 | inactive: 0.761 | inactive: 0.634 | inactive: 0.546
MEIHAYRKLLE [LMNA_Y376] | inactive: 0.629 | inactive: 0.737 | inactive: 0.859 | inactive: 0.719 | inactive: 0.896 | inactive: 0.86
MEIHAYLKLLE [LMNA_Y376_R377L] | inactive: 2.37 | inactive: 2.71 | inactive: 2.14 | inactive: 2.16 | inactive: 2.37 | inactive: 3.01
DRLAVYIDRVR [LMNA_Y45] | inactive: 0.791 | inactive: 0.701 | inactive: 0.751 | inactive: 0.601 | inactive: 0.638 | inactive: 0.788
DRLAVYIDRVS [LMNA_Y45_R50S] | inactive: 0.986 | inactive: 0.851 | inactive: 0.871 | inactive: 0.79 | inactive: 0.806 | inactive: 0.922
DRLAVCIDRVR [LMNA_Y45_Y45C] | inactive: 0.507 | inactive: 0.784 | inactive: 0.666 | inactive: 0.611 | inactive: 0.672 | inactive: 0.763
GIKAAYEAELG [LMNA_Y81] | inactive: 0.925 | inactive: 0.731 | inactive: 0.814 | inactive: 0.694 | inactive: 0.925 | inactive: 0.936
AWVARYIFKRL [LPCAT3_Y348] | inactive: 2.97 | inactive: 2.5 | inactive: 2.52 | inactive: 2.32 | inactive: 2.88 | inactive: 2.31
RSSKMYFKTRS [LPL_Y329_L330F] | inactive: 0.52 | inactive: 0.413 | inactive: 0.545 | inactive: 0.518 | inactive: 0.446 | inactive: 0.572
RSSKMYPKTRS [LPL_Y329_L330P] | inactive: 0.496 | inactive: 0.291 | inactive: 0.25 | inactive: 0.26 | inactive: 0.531 | inactive: 0.54
RSSKRYLKTRS [LPL_Y329_M328R] | inactive: 0.264 | inactive: 0.267 | inactive: 0.286 | inactive: 0.329 | inactive: 0.205 | inactive: 0.241
RTESQYQENRG [LRCH3_Y354_R350T] | inactive: 0.481 | inactive: 2.69 | inactive: 0.545 | inactive: 0.416 | inactive: 0.479 | inactive: 0.817
PGIRMYQVQYN [LRFN1_Y454] | inactive: 2.58 | inactive: 2.09 | inactive: 2.78 | inactive: 1.9 | inactive: 2.68 | inactive: 2.4
